Experimental data reported in the supplement of paper PMC10681739.
± gives the standard deviation of the averaged measurements. Whole data set: some 4,100 sequences, median “arbitrary fluorescence units” near 780, cut for the highest 2% near 22,000. This is one part of the list.

Each sequence was assayed against T1, ETS1 (UniProt P14921) (assay: ETS1 binding intensity (PBM fluorescence), ETS1 alone (arbitrary fluorescence units); higher = stronger binding). Details: ETS1 concentration 1 nM; RUNX1 concentration 0 nM.
T1 sequence: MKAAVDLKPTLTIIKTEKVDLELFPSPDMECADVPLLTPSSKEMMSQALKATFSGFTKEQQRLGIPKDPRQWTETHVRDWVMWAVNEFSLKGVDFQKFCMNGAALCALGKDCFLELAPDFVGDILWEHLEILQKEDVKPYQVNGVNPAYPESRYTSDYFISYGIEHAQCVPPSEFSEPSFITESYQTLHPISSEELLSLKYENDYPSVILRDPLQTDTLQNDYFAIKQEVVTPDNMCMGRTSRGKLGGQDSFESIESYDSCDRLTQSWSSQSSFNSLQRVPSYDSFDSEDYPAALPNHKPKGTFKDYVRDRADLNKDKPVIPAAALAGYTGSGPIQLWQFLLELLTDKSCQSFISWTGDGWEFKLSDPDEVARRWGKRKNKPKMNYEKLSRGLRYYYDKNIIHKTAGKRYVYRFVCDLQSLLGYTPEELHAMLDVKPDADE
Experimental: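 gcPBM on 36-bp genomic-derived probes (partner site mutated) containing one ETS1 site and no RUNX1 site. Recombinant human ETS1 (1 nM) was incubated alone or with RUNX1 (25 nM) and detected by anti-ETS1 antibody fluorescence. Values are medians over 4 replicate spots (not normalised). The probes sit in constant array flanks that are not printed.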

Sequence | ETS1 binding intensity
CCATTTCCCCCATCACTTTGAATTGGGGTTCTTCTC | 2770
TGTCAGTCTGGGGTTGGGCAGGAAGTGGCTGGGCAG | 2060
CCTGGGGGGCCGGAAGCCCCGCTTCGGCCCCAGCCC | 2820
TCAGTGCACTCGGATGTTGGCCGTAGTTGGGGTTAT | 388
CGGGCCCTGTAGTTTCCAACATCCTGTAGGCGGCCT | 3780
CTGGCGCCTTACGGCCAGAAGCCCGGAATGGACGCA | 338
ACTCAGTCCTGAACAACATTACTTTCCTGTCTACGT | 679
GTGCGGCGGGAAACGCGTTCCCCGGCAAGCGCGCCC | 581
CCCCTTCCCGTTCTCCGAAAGTGCGCCGGTTGGAGC | 2270
TTACACCCAAGGGATGTTGTTTGGGGGGGGCGGGGT | 598
CCTGCCTTCCGTCTTCCAGGCAGAACGACAGAGAGG | 1710
AACAGCTTCCGGCACGGGGGCTGGGGTTGTGTTGGA | 18700
TCTCACCCCGAAAAGACTCCACCCTTCCTGGCCCTT | 360
TTCAGAGCTCCGCGACAGGGAAGACAGGAAGTCCCG | 1480
AGCAAGATAAGCGCTGATCAGGAGCAGGAAGAGGCT | 418
CAGGCCAAAAAGCTACACCTCAGAGGATGTAGTTCG | 333
AGTGGCGTGCTTTGGGGCTTTATATCCGGGAGGAGC | 766
CACCTTTGTTGTAGTTTGTAAACGGAAACAAAAACA | 540
ACACCGTGCTTTTCGGTTCCCGGAAGTCCTTCAGGC | 1560
CTGAAGAGGAAATGTATTCCTCATGTTGTAGTTGGC | 1340
GTGAGCTGGGGTGTGCAGCCCACCATTTCCTTTTCT | 484
CCCAGGCTTCCGGGTTGAATATGAGGGCTGAGGCGA | 9420
ATCATCCTGACCATATGTTTCTTTAGGCCCCAAAAC | 755
AAGAAAGGTTCCGGCCTGCGCCCTGCTACCGTGGCT | 2270
CGATTCCGGAGACAGGCCCCACCGTGCTGTAAACTG | 635
TAGACGCGCTTTTGGACTGCTATTTCCGTAAAAGTC | 577
CCTGGGTGTTTGGGGTTCGTTCATCCTGAGGCATAA | 410

Sequence | ETS1 binding intensity
GGGCCCTTGTAGCTCACTCCCCCACATCCTGTCTTT | 1268 ± 3.5
CTTAAGCTTCCGCACCATGATGGCGGCAGCCCCAGC | 3720
CCGGGACAGGAAGAGGCTGGGGACAGCGGCGAAGGT | 2760
CATGGGGTCCCTTTTGCGCTGTTCCCGGACGGACTA | 318
TTGGTGGCTTCCTGCCCAGGAGAGCACACCCAGCTT | 6400
TGCTGCGAGCCATAAACATGGTTTCCGTCGGGCCCG | 534
GGTCGGCGGCGCGCGGGATGCTGGGAAATGTAGTTT | 328
TGCTGGCTTCGGCCCTTGCCGTTGCTTTCCGGCGCA | 284
AGTATACTCTGGTGAGAAACTTCCTGCCATACCAGC | 3360
CTCGCCGAAGAGACGCAGACGCGTCCTTCCGGCGGG | 880
CATGATAGTCGTTGGCCAGTCAATGAGGAAACGTAC | 363
CAAGTGTGTTGTCTCCTCTTATTTCCGGGTCTGTCA | 2020
TTCTCTGGGGACAATTAGGGTTTCTGGGTTTCCTGA | 457
AACTTAGCTTCCGGGAAGAAGGCGAGCGGAGGGAGG | 8800
AGCCACACCTCAGGGTTGTCACAGGAAATATGTGGC | 668
GAGACAGCGGCCTCAGTGGTGCGGAAGATGGAGAGG | 395
GCCAGCCAGAGACACCCTGTGCAGCTTCCTCCTTCG | 370
ACTACCTGCTGGTGGACACCAGCGGCGGAAGTCGGG | 752
CTGAGCCGGATGTTACTGGATAGTGCTTTTCTTTAT | 6150
CCTCGCCCCCTTCCGCACCCACCCCAGCGCGCTCCG | 1640
CCCGACTTCCGCCGCTGGTGTCCACCAGCAGGTAGT | 16300
GTGTGAGCCACGGCGCCAAGCCACACTTCCTTCTGC | 457
TAGAGGAGCAGCCGCCGACCAGACATCCGGGTCCCT | 1160
CCCAGGGCAAGCGCTTGCCTCCCGCGGACGTGCATC | 369
GTATTGTTTATCACAGCTATTTCCTTGAGAAGTTTC | 720
ATAATAACTACAAGAGATCTGATTTCCGTTGCTGGT | 1150
TGAGCCGTAGACACCAAAAATCCCACAGGAAGTTGT | 644

Sequence | ETS1 binding intensity
GCCGTGCTGTTTCCAGGCCCTACTTCCTGCCATATC | 3420 ± 460
TGGTCGCCGAAGCGAACAACCAGCTTCCGGCAAGCT | 4880
CTGTGCTTGTAGGCGAAGCCAGGAAATAAGGATAAA | 652
AATCACTGACACCTACACAGCCGTTTCCTGCACTTA | 1140
CTCGTGTTTTGTAGCTGTGTTCTGTCCGGTCAGTTG | 502 ± 32
CTCCGGGAACAGCGGAAAAGGGACCCCATGAACCTC | 624
CACGGAGCCACTTCCGGCGGCTGTGAGCGCAAAACC | 35500
TGCTTCCGGCGGGCGCTTGCTCCCCGAGGTCGGCAA | 24800
CCTGACCTCTCTGGGAACACACAGGAAGTGGTTCAT | 2690
AGAACAGCAGGAAATAAATACTCACCTCAGGACTGC | 1550
CGAGGGAGCCGGAAAGATGGTGCTTACCAGATCTGC | 693
CGGGAATCCACGGAATTTACTGCCGGAAGTTCGGCG | 2700
CCACCGCCCCGAAGCTCACACCGGATGTGCGACAGA | 7720
TCCAAGGCGGAAAAAACCCGCCCTAAACAGCACCCC | 371
CTTTGCTGCAGGATGTTCTAACTACAAGCCCAGGAG | 1470
GGCCTTTTCTTCCGCCCTCACAGCCACCGTGACCCA | 1610
ACTCACTTCCGTTTAGCTTATCAACTACCAAGAGAC | 35500
CTAGAGACTCGGTAGAAAGGTTCCGCCCGCTCCCTG | 311
TTCTGCGCCGCCGCCTCAGTCCCTTCTCAGGATGGG | 313
CGAGCTCGGTGTTCCGCTTTTTGTAGGCCGGGTGGG | 594
GAGCAAGCAGTGGCCAGGGAAGGCTTCCTGGAAGAG | 421
CAGAGGACAGGATGCCAACCCCAAAACAGCAGCGAC | 1460
GAGGGGGAGGTTTCCGGGGCCTGTGATTACTACACT | 3850
TTGGGGTTGGCAGACAGCAGAGCAAAGGAAATTGGG | 431
AACAGACAGGATGTGGCCTCTGCCAAAAGCACCATC | 5980
GGGGCAGGAAACAGCGTCCTGCGCGCGTAGCCCCTG | 2160
